Here are results for 43 compounds from paper PMC4336329 (PLoS ONE, 2015).

Screen size: about 310,000 compounds; about 2,200 (0.71%) showed an effect of 50% or more. The effect is printed as a negative number. This is one part of the list.

For this experiment, the target named is human ether-à-go-go-related gene (hERG) potassium channel (human, UniProt Q12809). Put plainly: primary screen, population patch clamp on CHO cells stably expressing hERG.
Sequence of human ether-à-go-go-related gene (hERG) potassium channel (Q12809 whole entry, looked up): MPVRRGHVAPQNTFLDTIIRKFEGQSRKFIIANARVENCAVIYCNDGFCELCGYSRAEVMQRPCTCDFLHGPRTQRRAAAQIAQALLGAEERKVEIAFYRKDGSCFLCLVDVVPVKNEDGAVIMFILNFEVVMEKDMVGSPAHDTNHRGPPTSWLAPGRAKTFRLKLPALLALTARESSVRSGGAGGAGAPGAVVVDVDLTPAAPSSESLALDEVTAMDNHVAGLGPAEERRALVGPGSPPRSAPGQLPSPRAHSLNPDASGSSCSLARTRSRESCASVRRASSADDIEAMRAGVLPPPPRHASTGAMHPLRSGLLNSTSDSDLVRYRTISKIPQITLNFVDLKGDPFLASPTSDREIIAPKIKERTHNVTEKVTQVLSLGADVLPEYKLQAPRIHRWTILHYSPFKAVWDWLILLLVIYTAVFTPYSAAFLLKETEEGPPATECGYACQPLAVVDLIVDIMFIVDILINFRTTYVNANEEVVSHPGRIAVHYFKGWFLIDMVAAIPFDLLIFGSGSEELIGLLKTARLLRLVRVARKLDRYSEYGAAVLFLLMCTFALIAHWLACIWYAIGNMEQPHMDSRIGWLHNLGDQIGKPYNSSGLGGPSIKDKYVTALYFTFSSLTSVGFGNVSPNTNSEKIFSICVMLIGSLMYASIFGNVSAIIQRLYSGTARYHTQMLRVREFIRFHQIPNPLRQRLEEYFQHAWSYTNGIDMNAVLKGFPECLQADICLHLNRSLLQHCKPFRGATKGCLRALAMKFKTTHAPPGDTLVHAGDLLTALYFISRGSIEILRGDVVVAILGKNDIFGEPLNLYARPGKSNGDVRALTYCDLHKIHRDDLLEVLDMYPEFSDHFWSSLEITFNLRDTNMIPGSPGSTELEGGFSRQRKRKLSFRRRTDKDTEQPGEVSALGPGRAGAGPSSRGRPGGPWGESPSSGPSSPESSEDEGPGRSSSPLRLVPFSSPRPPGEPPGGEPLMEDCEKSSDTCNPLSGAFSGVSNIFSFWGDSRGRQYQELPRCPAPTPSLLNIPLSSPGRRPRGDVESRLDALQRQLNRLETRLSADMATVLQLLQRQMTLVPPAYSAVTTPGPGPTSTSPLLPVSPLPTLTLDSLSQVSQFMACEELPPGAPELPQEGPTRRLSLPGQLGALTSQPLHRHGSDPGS
With `CC1CN=C(NC(=O)c2cccc([N+](=O)[O-])c2)S1.Cl` (stereo not shown), the “hERG current change (%, negative = inhibition) at 1uM” value was 7.67%.
Consider `Cc1ccc(C)c(NC(=O)C2CCN(S(=O)(=O)c3ccc4c(c3)NC(=O)CO4)CC2)c1`, for which the “hERG current change (%, negative = inhibition) at 1uM” value was determined as 0.661%.
Take `Cc1ccc(CC(=O)N2CCN(c3ccccn3)CC2)cc1`: the “hERG current change (%, negative = inhibition) at 1uM” value amounted to 6.18%.
Regarding `Cc1cccc(NC(=S)NNC(=O)CCn2cc(C)cn2)c1`, the “hERG current change (%, negative = inhibition) at 1uM” value is -1.72%.
In the case of `CC1CCCN(Cc2c(O)ccc3c(=O)c(-c4nc5ccccc5s4)c(N)oc23)C1` (stereo not shown), the “hERG current change (%, negative = inhibition) at 1uM” value was 8.6%.
For the compound `CC(=O)Nc1ccc(S(=O)(=O)N2CCCC2C(=O)Nc2ccc(F)cc2)cc1` (stereo not shown), the “hERG current change (%, negative = inhibition) at 1uM” value is on record as 14.3%.
Turning to `COc1ccccc1OCc1nc2ccccc2n1C`, the “hERG current change (%, negative = inhibition) at 1uM” value amounted to 7.93%.
With `CCCn1c(SCC(=O)Nc2ccc(OCC)cc2)nnc1C(C)C` the figure was 7.36%.
As for `COc1ccc2cc(C(C)=O)c(=O)oc2c1`, the “hERG current change (%, negative = inhibition) at 1uM” value is given as 0.412%.
As for `CCN1CCN(c2cc3nc(C)n(Cc4ccccc4)c(=O)c3cc2NC(=O)c2ccccc2F)CC1`, the “hERG current change (%, negative = inhibition) at 1uM” value is reported as 14.2%.
As for `COc1ccc(CNn2c(-c3cccs3)nc3ccccc3c2=O)cc1OC`, the figure is -2.98%; as for `O=[N+]([O-])c1cccc(-c2ccc(/C=N/NC(=S)Nc3cccc(F)c3)o2)c1`, 13.6%.
As for `CN1CCN(S(=O)(=O)c2cccc(C(=O)Nc3cccc([N+](=O)[O-])c3)c2)CC1`, the figure is 3.03%.
As for `COc1cc(/C=C/C(=O)OCC(=O)NCCC2=CCCCC2)ccc1O`, the “hERG current change (%, negative = inhibition) at 1uM” value came to 13.1%.
In the case of `Cc1ccccc1N(CC(=O)NCc1ccco1)C(=O)CNS(=O)(=O)c1ccc(F)cc1`, the “hERG current change (%, negative = inhibition) at 1uM” value is listed as 10.2%.
With `CC(=O)Nc1sc2c(c1C(c1ccc(Cl)cc1)N1CCOCC1)CCCC2` (stereo not shown) the figure was 11.4%; with `COc1cc(OC)c(NC(=O)Cn2cccc2)cc1Cl`, 13.5%.
Consider `O=C(c1ccc(-c2ccccc2)cc1)N1CCCC1`, for which the “hERG current change (%, negative = inhibition) at 1uM” value stood at 19.1%.
As for `O=[N+]([O-])c1ccc(C2=CSC3=NCCN23)cc1`, the figure is -0.955%; as for `Cc1csc(SCC(=O)Nc2oc(C)c3c(C)n[nH]c(=O)c23)n1`, 1.18%.
As for `CC(NCC(=O)Nc1cc(S(=O)(=O)N2CCOCC2)ccc1N1CCOCC1)c1ccco1` (stereo not shown), the figure is 0.0139%.
For the compound `Cc1ccc(NC(=O)C2CC(=O)n3c(nc4ccccc43)N2)cc1` (stereo not shown), the “hERG current change (%, negative = inhibition) at 1uM” value came to 14.1%.
As for `COc1cccc(CC(=O)OCC(=O)N(C)CC(=O)Nc2ccc(F)cc2)c1`, the figure is -2.81%; as for `CCN(CC)c1ccc(C2C(C(=O)OC)=C(C)NC(C)=C2C(=O)OC)cc1`, -6.67%; as for `CC(=O)Nc1ccc(-c2cn3ccsc3n2)cc1`, 11.8%.
As for `CCOC(=O)C1=C(CS(=O)(=O)c2ccccc2)NC(=O)NC1c1cc(OC)c(O)c(OC)c1` (stereo not shown), the “hERG current change (%, negative = inhibition) at 1uM” value stood at 14.2%.
For the compound `Cc1cc(C(=O)OCC(=O)Nc2ncc(C(F)(F)F)cc2Cl)c(C)o1`, the “hERG current change (%, negative = inhibition) at 1uM” value came to 9.64%.
In the case of `O=C(CN(C(=O)CNC(=O)c1cccs1)c1ccc(F)cc1)NC1CCCC1`, the “hERG current change (%, negative = inhibition) at 1uM” value worked out at 9.51%.
For the compound `Cc1c(NC(=O)CNCc2ccc3c(c2)OCO3)c(=O)n(-c2ccccc2)n1C.O=C(O)C(=O)O`, the “hERG current change (%, negative = inhibition) at 1uM” value is on record as 2.82%.
As for `Cc1ccc(/C=N/N=C2/NC(=O)C(CC(=O)N3CCOCC3)S2)cc1` (stereo not shown), the figure is 12.4%; as for `CC1Cc2ccccc2N1C(=S)Nc1ccc(S(N)(=O)=O)cc1` (stereo not shown), 3.88%.
As for `Cc1nn(-c2ccccc2)c2sc(C(=O)N3CCCCC3)cc12`, the figure is 9.61%; as for `Cc1sc2c(c1C)C(=O)/C(=C\Nc1ccccn1)S(=O)(=O)N2C`, 12%; as for `CC(=O)N1[C@H](Cc2ccccc2)C=C[C@]1(C)C(=O)NCCc1c[nH]c2ccccc12`, 14.7%.
With `O=C(COC(=O)c1ccccc1Nc1ccc(SC(F)F)cc1)NC1CC1` the figure was 2.26%; with `Cn1c(COc2ccccc2)nnc1SCC(=O)NCc1ccccc1`, -4.41%; with `Cn1nnc(NC(=O)C(c2ccccc2)c2ccccc2)n1`, 13.5%.
Take `Cn1cccc1/C=N/NC(=O)Cn1cnc2ccccc21`: the “hERG current change (%, negative = inhibition) at 1uM” value is -1.94%.
As for `O=C(O)c1cccc(S(=O)(=O)N2CCOCC2)c1`, the figure is -6.4%.
In the case of `COC(=O)c1ccc(-c2noc(CN(Cc3ccccn3)CC3CCCO3)n2)cc1` (stereo not shown), the “hERG current change (%, negative = inhibition) at 1uM” value is recorded as -6.54%.
As for `O=C(NC1CCCCC1)C1CCC(=O)N(Cc2cccc(C(F)(F)F)c2)C1` (stereo not shown), the figure is -11.3%.
With `O=C(N/C(=C\c1ccc(Br)cc1)C(=O)N1CCCC1)c1cccs1` the figure was 4.96%; with `COc1ccc(CN(Cc2ccc(C(=O)O)cc2)C(=S)Nc2ccccc2Cl)cc1OC`, 13.9%.
